Variants at the background level are over-represented here.
B1: tRNA (parent)
chain: CUCUCGGUAGCCAAGUUGGUUUAAGGCGCAAGACUUUAAUUUAUCACUACGAAAUCUUGAGAUCGGGCGUUCGACUCGCCCCCGGGAGAUUUUUUCCUCGAGCAA

Variants of: B1
Assay: nonsense suppression (GFP-seq) (ratio to wild type); higher = more function; SUP4oc tRNA, yeast GFP reporter sort-seq
How it was run: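 Each variant's nonsense suppression (GFPSEQ) is a cell-share-weighted bin median GFP/RFP relative to the unmutated parent tRNA. Yeast with genome-integrated tRNA variants from a ~3% random-mutation library, a galactose-driven GFP ochre reporter and RFP were grown in raffinose/galactose medium with 80 mg/L adenine, then sorted into GFP/RFP bins for Illumina sequencing. Variants needed ≥100 reads and ≥30 cells.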

Nonsense suppression, 0.031:
G25C C68U

Nonsense suppression, 0.0306:
C27U G61C

Nonsense suppression, 0.0346:
C27U A62U

Nonsense suppression, ≤ 0.026:
C27G U55C A60C U76G G84C
G25U A33G
C27U A62C
C27G U58G A62C G78U
G26C C27G
G25U C34U
G25U C34G
C27U G78C
C27G A74C G86A
G26C A74G
C27A G32U G69A
G26U G66C C83G
G26C U70A
G26C U70C
G25U U57C G86U
C27A C64U
G26U U70G C79U
C27G U57C G86C
C27A G88U
G25U A30G G59U
G25U G26A A33U U63C C72A
G26A U35C A54U G61U C72U
G25U C27A C34A
G25C U76C
G25C U76A
G25U C82A
G26U A89G
C27G C80G A87C
C27U G28U A74C C79G G86U
C27G G61A
C27G G61C
C27G U63C
C27G G59C
C27G G59A
G25U C34G U58A
G25C G86C
G26C A54C G73U
G26U G67A
G25C C77G C80G
G26U C82A
G25C C80G
G25C U57C A74U
C27U G65A G69U
C27G U57G G84C
G26C C72U C80G
C27G A30G U57A C77U
C27U C72G U76C
C27U G67U
C27U G67C
C27G C68G G84A
G26A U70C
C27G A62U
C27G U35C C56U G67U U71C
C27G G67C U70A U76A
C27A U35G C72G
G25C G69A
G26U U35C G84C
G26C C80U
G26C C80A
C27G C64U G78C
G25U A33U U55A C77G
G26U U76A G88A
G26U U76G
C27G U76A G84C
G26C G66A G73A C77G
C27U G84U
C27A A54U U57C
G26A G28U G66U C79A
G26U G78C
G26U G67A A87G
C27A C34G A60U C77U
C27U A33C U57A
G26C U58A U63G C64G C80A A89C
G26C C29U G67U
C27G A31G C64U C80U
G26A G32U U55A
G26U A33G C56G
G26A C56G U57A G88C
G26A A74C
G25U A89U
C27G A89U
G26U C27U
G25C G73U
G25C G73C
G26A A74C U76C
C27U G61U
G25C C27U C29A U58A G69A C72A
C27G G32C
G26U A60C
C27G G67U
G25C U35A C72A C81A
C27G A60C G84C
C27G A30U C80U
G26U A33G G78C G84A
G26C C34G U55C G66C
G26U A31C U55G G65C
C27A A62G
G26U U58G
G25U G73C
G26A C68G
C27G A31G A54U U70C G84A
G26C C64G C75U
C27U A31G C56G A62C C68U
G26A G66U U70C
G25U G85C
G25C U35C U57C G86C
G26C C82G G84A
G26U C64A G66U
G25C C34A U70A G86U
C27U C34G G61A
G25U U57A C83A
G25U U71G
C27G U55C A60U C75G G86U
G26U
G26C
G26A
G25C G85U
G26C C83U
G26A U76A G78C
C27U C68A
G26C U35A
C27G G65U G73C
C27G G69C
C27U G32C C77G
G25C C27G
G26A G85U G86C
C27G C29U U35A
C27U G65C G88U
C27U A54U G61A
G25C C29U A30U U70G U76A
G26A C56A G69U
G26C A54G
G25C C64U
G25U G26C A31G U55A G84C
C27G G73U
G25U
G25C C83G
G25U C64G G65C
G25C C29G U55C G66A
C27A U71C G88A
C27U C82G
G25U U58G
G26U G86C
C27G C34G G61C G73A
G25C G26A A30G A31U C77U
G25U C34A U76C G84A
G25C G32U A54G G59A U76G
C27G C81G
G26C C72A C77A C83G
C27A A33C U63C
C27A C64U U71G
G26U G73A
G26A U55A C68U
G25U A33G G84U
G26U A33C U70C G85A A87C
G26U C68A G73A C77G
C27U C29A
G25U U70A
G25U G32U
G25C C29G G84C
G25U C56A C64A
G26A G69C A74U
C27A U55G G61A C83G

Nonsense suppression, 0.349:
C27A A62C

Reference: the RNAGym collection of RNA variant scans (doi:10.1101/gad.245936.114)
